# From publication PMC4336329 (PLoS ONE, 2015)
# About 14,000 (4.5%) of roughly 310,000 compounds showed an effect of 50% or more. The effect is printed as a negative number. Some of the results follow.
# Molecular target: human ether-à-go-go-related gene (hERG) potassium channel (human, UniProt Q12809)
# Test: primary screen, population patch clamp on CHO cells stably expressing hERG
# 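Further: peak tail current of the secondary pulse compared with the same well before compound.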
# human ether-à-go-go-related gene (hERG) potassium channel, sequence (Q12809 whole entry, looked up): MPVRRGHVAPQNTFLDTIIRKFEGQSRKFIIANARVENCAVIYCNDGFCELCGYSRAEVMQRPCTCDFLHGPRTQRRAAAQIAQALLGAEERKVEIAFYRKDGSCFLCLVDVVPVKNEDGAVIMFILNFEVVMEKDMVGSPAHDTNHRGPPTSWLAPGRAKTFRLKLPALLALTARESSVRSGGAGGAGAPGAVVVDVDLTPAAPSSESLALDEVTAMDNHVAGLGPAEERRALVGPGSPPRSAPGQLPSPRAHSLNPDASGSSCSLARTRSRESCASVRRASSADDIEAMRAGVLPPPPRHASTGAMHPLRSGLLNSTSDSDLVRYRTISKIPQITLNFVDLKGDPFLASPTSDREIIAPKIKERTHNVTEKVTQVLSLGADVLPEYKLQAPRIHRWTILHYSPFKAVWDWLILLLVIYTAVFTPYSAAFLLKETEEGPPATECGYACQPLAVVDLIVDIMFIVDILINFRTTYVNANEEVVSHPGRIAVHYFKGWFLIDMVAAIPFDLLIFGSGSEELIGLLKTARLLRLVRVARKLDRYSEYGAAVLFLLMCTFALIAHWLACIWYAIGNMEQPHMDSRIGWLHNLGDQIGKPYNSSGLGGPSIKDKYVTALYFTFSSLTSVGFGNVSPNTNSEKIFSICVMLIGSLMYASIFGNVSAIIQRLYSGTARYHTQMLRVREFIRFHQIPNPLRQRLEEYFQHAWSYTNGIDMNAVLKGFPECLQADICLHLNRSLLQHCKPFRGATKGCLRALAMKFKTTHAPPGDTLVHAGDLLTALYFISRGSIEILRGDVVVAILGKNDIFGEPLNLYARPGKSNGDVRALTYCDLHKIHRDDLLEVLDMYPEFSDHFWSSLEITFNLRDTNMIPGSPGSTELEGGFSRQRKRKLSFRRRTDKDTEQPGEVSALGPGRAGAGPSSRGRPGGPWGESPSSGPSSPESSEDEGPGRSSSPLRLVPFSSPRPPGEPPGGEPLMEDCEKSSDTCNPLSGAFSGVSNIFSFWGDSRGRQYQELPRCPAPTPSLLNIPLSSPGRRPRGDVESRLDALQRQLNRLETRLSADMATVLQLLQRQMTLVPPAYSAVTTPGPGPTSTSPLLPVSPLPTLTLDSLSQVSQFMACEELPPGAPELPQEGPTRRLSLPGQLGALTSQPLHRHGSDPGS
row,SMILES,"hERG current change (%, negative = inhibition) at 10uM [%]"
1,CC(Oc1ccc(C(C)(C)C)cc1)C(=O)NCC(c1ccco1)N1CCCC1 (stereo not shown),-40.8
2,Cc1ccc(C(CNC(=O)c2ccc(Br)o2)N2CCN(C)CC2)cc1 (stereo not shown),-60.4
3,Cc1n[nH]c(=O)c2c(NC(=O)COC(=O)Cc3c(F)cccc3Cl)oc(C)c12,-2.5
4,Cc1ccc(C(=O)C(OC(=O)CN2C(=O)c3ccccc3C2=O)c2ccccc2)cc1 (stereo not shown),-20.7
5,S=C(NC1CCCC1)N1CCOCC1,-1.58
6,Cl.O=C(CN1CCCCC1)Nc1ccc(NC(=O)c2ccccc2Cl)cc1Cl,-8.82
7,CC(Sc1ccc(S(=O)(=O)N2CCCC2)cn1)C(N)=O (stereo not shown),12
8,COc1ccc(C2C(C(C)=O)=C(O)C(=O)N2c2cccnc2)cc1OC (stereo not shown),14
9,CC(=O)c1cccc(NC(=O)c2cc3nc(C)cc(C)n3n2)c1,3.83
10,CCCOc1ccccc1Nc1nnc(C)c(=O)[nH]1,2.99
11,Cc1ccc(O)c(C(=O)c2cnc(/N=C(\N)N(C)C)nc2)c1,12.3
12,C(=C\c1nc(-c2ccccc2)no1)/c1ccccc1,13.9
13,COc1ccc(-c2nn(-c3ccccc3)cc2C(=O)NC(=S)Nc2cc(Cl)ccc2Cl)cc1,11.1
14,CCOC(=O)Cn1c(C)[n+](C)c2cc(Cl)c(Cl)cc21.[I-],-9.71
15,CN(C(=O)COC(=O)C1CCN(S(=O)(=O)c2ccc3c(c2)OCCO3)CC1)c1ccccc1,-8.77
16,COc1ccc(OCc2ccc(/C=N\NC(=O)c3sccc3C)o2)cc1,6.56
17,O=C1CC[C@@H](CN(Cc2ccccn2)Cc2nc(Cc3ccccc3)no2)N1,-2.64
18,Cc1cc(N2C(=O)C(O)=C(C(=O)c3cc4ccccc4o3)C2c2cccc(Cl)c2)no1 (stereo not shown),21.6
19,O=C(Nc1ccc(Cl)cc1C(=O)NCCN1CCOCC1)c1ccc(Cl)cc1Cl,-21.2
20,CC(=O)Oc1ccc(-c2cccc(C(=O)N3CCCCC3)c2)cc1,5.03
21,N#CCCn1cc(C(=O)Nc2ccccc2Br)c(-c2cc3ccccc3o2)n1,-7.47
22,Cc1oc(-c2ccc(Cl)cc2)nc1CN1CCCC(C(=O)NC2CC2)C1 (stereo not shown),-81.3

row,SMILES,"hERG current change (%, negative = inhibition) at 10uM [%]"
1,CCCCn1c(N)c(N(CC)C(=O)c2ccccc2C)c(=O)[nH]c1=O,20.7
2,CCCS(=O)(=O)N1CCC(C(=O)N2CCN(C(=O)OCC)CC2)CC1,-1.63
3,CC#CP(=O)(OC)C(O)(CF)c1ccccc1 (stereo not shown),12.9
4,CCOC(=O)C1CCN(/C=C2/C(=O)NC(=O)N(Cc3ccco3)C2=O)CC1,14.8
5,CC(C)(C)NS(=O)(=O)c1cnc(Cl)c(Cl)c1,2.6
6,O=C(NCc1ccc(S(=O)(=O)NC2CCCCC2)s1)c1ccccc1,-12
7,COc1ccc(C(NC(=O)N2CC(C)OC(C)C2)C(Cl)(Cl)Cl)cc1F (stereo not shown),-10.4
8,COc1ccccc1Nc1nc(N)nc(CN2CCN(c3ccccc3F)CC2)n1,-35.9
9,COc1ccc(C2CC(C(F)(F)F)n3nc(C(=O)Nc4c(C)n(C)n(-c5ccccc5)c4=O)c(Cl)c3N2)cc1 (stereo not shown),-17.3
10,COc1ccc(C(CC(=O)Nc2ccc(C)cn2)N2Cc3ccccc3C2=O)cc1 (stereo not shown),-41.7
11,CN=C1S/C(=C\c2ccc(SC)cc2)C(=O)N1C,15.6
12,CCC(C)(C)NC(=O)C(c1ccccc1F)N(Cc1ccco1)C(=O)c1csnn1 (stereo not shown),-26.2
13,CCOC(=O)c1c(C)c(C(=O)NC(C)COC)c(C)n1CC (stereo not shown),-6.3
14,CCOc1ccc(CN2CCNC(=O)C2CC(=O)N(C)Cc2nonc2C)cc1 (stereo not shown),14.7
15,Cc1ccc(N2CC(=O)N(NC(=O)Nc3ccc(Cl)c(Cl)c3)CC2=O)cc1,12.2
16,O=C(C1=C(O)C(=O)N(CCN2CCOCC2)C1c1ccc(F)cc1)c1cc2ccccc2o1 (stereo not shown),2.59
17,CC(C)c1ccc(C(C(=O)NC2CCCCC2)N(C(=O)c2ccccn2)c2cccnc2)cc1 (stereo not shown),11.5
18,COc1ccccc1CNC1CCCc2ccccc21.O=C(O)C(=O)O (stereo not shown),-6.19
19,Cc1ccc(NC(=O)c2cc(C(C)(C)C)nn2Cc2ccccc2)cc1,-0.692
20,COc1cc(NC(=O)C(=O)Nc2ccc3nc4n(c(=O)c3c2)CCCCC4)cc(OC)c1OC,-1.55
21,Cc1ccc(CCNC(=O)CN2CCN(Cc3ccccc3F)C2=O)cc1,-8.3
22,Cc1cccc2cc(C3CC(c4cccs4)=NN3C(=O)CCC(=O)O)c(Cl)nc12 (stereo not shown),1.57

row,SMILES,"hERG current change (%, negative = inhibition) at 10uM [%]"
1,COc1cc2nc(CSc3ncn[nH]3)[nH]c(=O)c2cc1OC,15.3
2,CCOc1ccc(-c2nnn(CC(=O)NCc3ccc(F)cc3)n2)cc1OCC,2.92
3,CCC(C)NC(=O)CCSc1ccc(C)cc1 (stereo not shown),3.4
4,CC[C@@](C)(NS(=O)(=O)OCC(Cl)(Cl)Cl)c1ccccc1,-21.2
5,CCNC(=O)C1OC(n2cnc3c(N)ncnc32)C(O)C1O (stereo not shown),2.93
6,CCOC(=O)c1sc(SCC(=O)Nc2ccc(N(C)C)cc2)nc1N,-13
7,O=C(Nc1cccnc1Cl)c1ccc(=O)oc1,7.47
8,Cc1ccccc1NC(=O)c1cn2c(nc3ccccc32)c(C#N)c1C,2.11
9,CC(=O)Nc1cccc(NC(=O)CSc2nc(=O)n(CCCN3CCOCC3)c3c2CCC3)c1,0.499
10,Nc1ccc(-n2cnc3cc([N+](=O)[O-])ccc32)cc1,1.35
11,COc1cc(C2C(C(C)=O)=C(O)C(=O)N2CCN(C)C)ccc1O (stereo not shown),8.39
12,Cc1c(C(=O)N(C)c2ccccc2)oc2c1C(O)CC(C)(C)C2 (stereo not shown),11.3
13,COc1ccc(NC(=O)CCC(=O)N2CCOCC2)c([N+](=O)[O-])c1,-4.86
14,COc1ccc(Nc2cc3n(c(=O)n2)CCc2cc(OC)c(OC)cc2-3)cc1,4.8
15,CCCn1cnc2c(sc3nc4c(cc32)CSC(C)(C)C4)c1=O,-2.61
16,CS(=O)(=O)c1ccc(-c2cccc(NC(=O)c3ccc(Br)o3)c2)nn1,3.74
17,COC(=O)C1=C(C)N(C)C(=O)NC1c1ccc(O)c(OC)c1 (stereo not shown),3.84
18,CCCCN1C(=O)NC(=O)/C(=C/c2cnc(SC)nc2)C1=O,5.29
19,O=C(NCc1cccnc1)c1cc([N+](=O)[O-])ccc1N1CCOCC1,-37.6
20,COc1ccc(NS(=O)(=O)c2cc(C(=O)O)ccc2C)cc1,3.19
21,Cc1ccc(C2=NN=C(NC(=O)CSc3nncn3C)SC2)cc1,3.58
22,CCCCCOc1ccc(/C=N/NC(=O)c2nnn(-c3nonc3N)c2CN2CCCCCC2)cc1,11.1

row,SMILES,"hERG current change (%, negative = inhibition) at 10uM [%]"
1,CN(C(=S)Nc1ccc(SC(F)F)cc1)C(c1ccccc1)c1ccccc1,-0.128
2,COc1cccc(NC(=O)COc2ccccc2)c1,7.8
3,Cc1cc(C)c(NC(=O)CS(=O)CC(=O)NCCN2CCCCCC2)c(C)c1 (stereo not shown),23.7
4,Cc1[nH]nc(Nc2ccccc2)c1[N+](=O)[O-],-3.89
5,Cc1ccc(Cn2ncc3c(NN)ncnc32)cc1,10.3
6,CNC(=O)c1c(C)noc1C,24.8
7,N#CCSc1nc(-c2ccccc2)nc2ccccc12,7.83
8,Cc1cc(C(=O)OCC(=O)NC2CCS(=O)(=O)C2)c(C)n1-c1ccccc1 (stereo not shown),-6.8
9,COc1ccc(NC(=O)Nc2cccc(C)n2)cc1,4.5
10,CCN(CC)S(=O)(=O)c1ccc(S(=O)(=O)NCC2CCCO2)cc1 (stereo not shown),3.86
11,COc1ccc(-c2nnc(SCC(=O)Nc3ccc(Cl)cc3)n2C)cc1,22.1
12,CCCC(C(=O)N1CCOCC1)N1C(=O)C2C3C=CC(C3)C2C1=O (stereo not shown),15.1
13,COc1ccccc1C(=O)Nc1ccc(OCC(=O)N2CCCCC2)cc1,-2.87
14,COc1ccccc1NC(=O)O/N=C(\N)c1ccccc1,-16.5
15,COc1cc(NC(=O)c2cccc(NC3=NC4CS(=O)(=O)CC4S3)c2)cc(OC)c1OC (stereo not shown),13.5
16,CCCc1ccc(OCc2ccc(C(=O)N3CCCC3)o2)cc1,-40.7
17,CCOc1ccc(CCNC(=O)c2nnc(CS(=O)(=O)c3ccccc3)o2)cc1OCC,3.23
18,O=C(NCCCN1CCOCC1)Nc1ccc(Cc2ccc(NC(=O)NCCCN3CCOCC3)cc2)cc1,1.19
19,CCc1nc(SCC(=O)c2ccccc2)c2c(=O)n(C)c(=O)n(C)c2n1,-3.2
20,COc1ccc(OC)c(S(=O)(=O)NNC(=S)Nc2ccc3c(c2)OCO3)c1,12.7
21,CCn1cc2nc(SCC(=O)Nc3ccc(OC)c(OC)c3)n(Cc3ccc(OC)cc3)c(=O)c2n1,2.9
22,CC(=O)NC(Cc1c[nH]c2ccccc12)C(=O)OCC(=O)Nc1cc(C)on1 (stereo not shown),4.52
